# The shares of active, inactive and inconclusive entries below differ from those in the screen. For part of these data: A potency beside an inconclusive call is a rough fit, not a confirmed value. Active and inactive are the calls of the source. Unless noted, the call rests on the fitted dose curve; in most records, active means well fitted curve in the direction sought with a large enough effect; inconclusive means small, poorly fitted or top-dose-only effect, or another doubt; inactive means no such curve, though single readings can be large; an effect the other way counts as inactive or inconclusive.
# Key:
# [1] = system: KB-3-1; assay: Cytotoxic Profiling of Annotated Libraries Using Quantitative High-Throughput Screening (AID 1296008); conditions: Five cell lines viability, CellTiter-Glo ATP luminescence, 48-72 h; max response: active compounds read low; further: nearly all actives have a fitted effect of over 60% in size
# In short: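 Compounds were pin-transferred onto cells and incubated 48 or 72 hr at 37 degree Celsius, 95% humidity. CellTiter-Glo was added, plates sat 10 min at room temperature, then ATP-coupled luminescence was imaged as the viability read-out.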
# [2] = S16 Schwann cell PMP22 intronic element beta-lactamase assay (AID 624044; calls by dose curve;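 further: 0% = DMSO and -100% = potassium clavulanate positive control; nearly all actives have a fitted effect of over 15% in size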); conditions: S16 rat Schwann cells, PMP22 element beta-lactamase FRET, 24 h; ratio activity, negative = inhibition: at 38.3 µM (top of the series) unless noted
# In short: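 Rat S16 Schwann cells with beta-Lac driven by a PMP22 intronic element, compound-treated 24 h at 37 °C. LiveBLAzer FRET B/G read: 460 nm normalized to potassium clavulanate vs DMSO; 535 nm FRET as viability; concentration-effect curves classified.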
# [3] = Quantitative High-Throughput drug screen in 47 multiple myeloma cell lines against the NCATS MIPE library collection: OPM2_DSMZ cell viability assay (AID 1919872); conditions: OPM2 myeloma viability, CellTiter-Glo ATP luminescence, 48 h; series mostly up to 45.8 µM; further: nearly all actives have a fitted effect of over 30% in size
# In short: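 Primary qHTS used for cherry-picking: cells at 500/well, library compounds for 48 h (37C, 5% CO2), luminescent ATP assay.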
# [4] = Quantitative High-Throughput drug screen in 47 multiple myeloma cell lines against the NCATS MIPE library collection: KMS28BM_JCRB cell viability assay (AID 1919874); conditions: CellTiter-Glo ATP, 48 h; series mostly up to 45.8 µM; further: potency means the concentration at half of the fitted maximal effect; nearly all actives have a fitted effect of over 35% in size
# In short: (§1)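 Myeloma cells (500/well) treated with MIPE 4.0 compounds for 48 h at 37 °C, 5% CO2. Viability read as ATP via CellTiter-Glo luminescence after 5 min at RT; DMSO-only wells = 100%, media-only = 0% viability.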
# [5] = Quantitative High-Throughput drug screen in 47 multiple myeloma cell lines against the NCATS MIPE library collection: NCIH929_DSMZ cell viability assay (AID 1918978); conditions: NCI-H929 myeloma viability, CellTiter-Glo ATP, 48 h; viability, % of control: at 45.8 µM (top of the series); further: potency means the concentration at half of the fitted maximal effect; nearly all actives have a fitted effect of over 35% in size
# In short: as §1
# [6] = system: 3D7; assay: qHTS profiling for inhibitors of Plasmodium falciparum proliferation (AID 504749); further: nearly all actives have a fitted effect of over 60% in size; further: potency means the concentration at half of the fitted maximal effect;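 on activity, negative = inhibition: 0% = DMSO vehicle and full inhibition = artemisinin control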; conditions: P. falciparum in erythrocytes, SYBR Green DNA, 72 h; series mostly up to 28.7 µM
# In short: (§2)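 P. falciparum-infected erythrocytes (0.3% parasitemia, 2.5% hematocrit final) were exposed to compounds for 72 h at 37 C in 5% CO2, then lysed with SYBR Green buffer overnight at room temperature; parasite DNA fluorescence was normalized to artemisinin and DMSO controls.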
# [7] = system: CP217; assay: as above; conditions: P. falciparum in erythrocytes, SYBR Green DNA, 72 h; series mostly up to 28.7 µM
# In short: as §2
# [8] = qHTS of pediatric cancer cell lines to identify multiple opportunities for drug repurposing: Confirmatory screen for TC32 cells (AID 1347118); conditions: TC32 Ewing sarcoma cells viability qHTS; series mostly up to 45.9 µM;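 further: potency means the concentration at half of the fitted maximal effect; cells exposed to compound for 48 h before the read; nearly all actives have a fitted effect of over 65% in size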
# In short: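 Luminescent CellTiter-Glo read-out of metabolically active TC32 cells after 48 h compound exposure. Primary: MIPE 11-point, 0.78 nM–46 µM; NPC 8-point, 0.59 nM–46 µM. Confirmatory: 11-point dilutions.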
# [9] = qHTS of pediatric cancer cell lines to identify multiple opportunities for drug repurposing: Confirmatory screen for MG 63 (6-TG R) cells (AID 1347119); conditions: MG-63 (6-TG resistant) osteosarcoma viability; series mostly up to 45.9 µM; further: nearly all actives have a fitted effect of over 55% in size; further: potency means the concentration at half of the fitted maximal effect;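 on activity change, negative = cytotoxicity: plate controls were DMSO neutral control for no effect and bortezomib for full effect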
# In short: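 Cells (500-1,000/well) in growth media were settled 5 h at 37 degrees C, then given compounds for 48 h. Viability was read as CellTiter-Glo luminescence. Primary runs used MIPE at 11 points (0.78 nM-46 µM) and NPC at 8 points (0.59 nM-46 µM); follow-ups used 11 points.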
# [10] = Counterscreen qHTS for small molecule stabilizers of the endoplasmic reticulum resident proteome: GLuc-NoTag assay (AID 1508627); conditions: Gaussia luciferase NoTag secretion counterscreen, luminescence, thapsigargin 100 nM for final 4 h; series mostly up to 76.4 µM; further: potency means the concentration at half of the fitted maximal effect;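 on activity change, negative = inhibition: SH-SY5Y cells given compound then 100 nM thapsigargin to empty ER calcium; 0% = thapsigargin alone and -100% = DMSO vehicle control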
# In short: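 SH-SY5Y cells stably expressing constitutively secreted GLuc (no SERCaMP tag) were pre-incubated 5 h, treated with compound for 19 h, then 100 nM thapsigargin for 4 h at 37C; medium GLuc read by coelenterazine luminescence.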
# [11] = qHTS of pediatric cancer cell lines to identify multiple opportunities for drug repurposing: Confirmatory screen for A673 cells (AID 1347110); conditions: A673 Ewing sarcoma cell viability; series mostly up to 45.9 µM;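 further: potency means the concentration at half of the fitted maximal effect; cells exposed to compound for 48 h before the viability read; nearly all actives have a fitted effect of over 65% in size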
# In short: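 Forty-eight-hour viability assay. Follow-up compounds ran at 11-point dilutions; positive control bortezomib at 2.3 uM final, neutral control DMSO.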
# [12] = biological target: Metallo-beta-lactamase type 2 (Klebsiella pneumoniae) (UniProt C7C422); assay: qHTS to identify inhibitors of the New Delhi Metallo-beta-lactamase (NDM): assay validation screen against the NCATS LOPAC Collection (AID 1794843); conditions: NDM-1 enzyme, nitrocefin hydrolysis, absorbance 485 nm; series mostly up to 38.4 µM;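 further: nitrocefin turnover by NDM-1 measured as 485 nm absorbance at plateau; on the % scale 0 is the no-effect control and ±100 the full control effect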
# In short: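 NDM-1 at 2 nM final in 50 mM HEPES pH 7.0 with 1 uM ZnSO4 and 0.01% Tween20 was preincubated with library compounds in DMSO. Nitrocefin (50 uM stock) was then added, and absorbance at 485 nm was read at the kinetic plateau.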
# [13] = biological target: Peroxisome proliferator-activated receptor delta (Homo sapiens) (UniProt Q03181); assay: qHTS assay for small molecule antagonists of peroxisome proliferator-activated receptor delta signaling (AID 588535; active means well fitted inhibition curve with a large enough effect in the signal ratio, with a control signal flat, not every such curve was filed as active; inconclusive means small, poorly fitted or top-dose-only effect, or effect the other way, or a change in a side signal; inactive means no such curve, though single readings can be large or run the other way; the % refers to the signal ratio); conditions: HEK293T PPARd-UAS-bla, beta-lactamase FRET ratio, 18 h; activity change, negative = inhibition: at 76.7 µM (top of the series)
# In short: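 GeneBLAzer PPAR-delta-UAS-bla HEK293T cells in medium with 2% charcoal/dextran FBS were preincubated 5 hrs at 37 C, then given compounds, incubated 18 hrs at 37 C, and read by CCF4 beta-lactamase fluorescence; IC50 from Hill fits.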
# [14] = qHTS assay for small molecule agonists of the antioxidant response element (ARE) signaling pathway (AID 651741; active means well fitted activation curve with a large enough effect in the signal ratio; inconclusive means small, poorly fitted or top-dose-only effect, or effect the other way, or a change in a side signal; the % refers to the signal ratio; further: % of control where 0% means no effect); conditions: HepG2 ARE-bla reporter, beta-lactamase FRET ratio, 16 h; activation: at 96 µM (top of the series)
# In short: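 ARE-bla HepG2 cells (beta-lactamase reporter under ARE control) were plated at 2,000 cells/well, preincubated 5 h at 37 C/5% CO2, then treated with DMSO-dissolved compounds for 16 h at 37 C; LiveBLAzer B/G FRET substrate added, fluorescence read after 2 h at room temperature.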
# [15] = qHTS to identify inhibitors of the type 1 interferon - major histocompatibility complex class I in skeletal muscle: primary screen against the NCATS LOPAC collection (AID 1347405); conditions: iHSKM muscle cells, IFN-b-induced MHC-I HiBiT luminescence, 24 h; activity change, negative = inhibition: at 45.9 µM (top of the series);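 further: lytic HiBiT luminescence reporting HLA-B protein level; potency means the concentration at half of the fitted maximal effect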
# In short: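 Cells: C25cl48 human myoblasts, HiBiT-tagged HLA-B*08:01, stimulated with IFN-beta 4.0 ng/ml. Compounds are titrated 1:4.3 over 7 points from 46 uM final and incubated 24 hrs; endogenous MHC class I is quantified by HiBiT lytic luminescence.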
# [16] = Cell Viability - NIH 3T3 (AID 541); conditions: NIH 3T3 cell viability, qHTS; activity change, negative = cytotoxicity: at 92.2 µM (top of the series);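 further: cells exposed to compound for 40 hours; plate controls were DMSO alone for no effect and tamoxifen positive control for full effect; nearly all actives have a fitted effect of over 25% in size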
# In short: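 AC50 values reflect concentration-dependent loss of intracellular ATP in NIH 3T3 cells after 40 hr treatment in complete culture medium, quantified by luciferase-based luminescence.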
# [17] = system: CP286; assay: qHTS profiling for inhibitors of Plasmodium falciparum proliferation (AID 504749); further: nearly all actives have a fitted effect of over 60% in size; further: potency means the concentration at half of the fitted maximal effect;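 on activity, negative = inhibition: 0% = DMSO vehicle and full inhibition = artemisinin control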; conditions: P. falciparum in erythrocytes, SYBR Green DNA, 72 h; series mostly up to 28.7 µM
# In short: as §2
# [18] = Confirmatory qHTS for small molecule stabilizers of the endoplasmic reticulum resident proteome: Secreted ER Calcium Modulated Protein (SERCaMP) assay (AID 1508628); conditions: SERCaMP secreted luciferase ER calcium/proteostasis reporter; series mostly up to 76.3 µM; further: nearly all actives have a fitted effect of over 40% in size; further: potency means the concentration at half of the fitted maximal effect
# In short: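 We seeded SH-SY5Y-GLuc-SERCaMP cells, added compounds (three concentrations in the primary run, eleven up to 76.6 uM in confirmation), incubated 16 h, depleted ER calcium with thapsigargin, and read luciferase 4 h later.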
# [19] = P-glycoprotein substrates identified in KB-3-1 adenocarcinoma cell line, qHTS therapeutic library screen (AID 1346986); conditions: KB-3-1 parental cells viability, CellTiter-Glo, 72 h; series mostly up to 44.5 µM; further: nearly all actives have a fitted effect of over 60% in size
# In short: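 KB-3-1 parental cells and P-gp-overexpressing KB-8-5-11 (colchicine omitted during assay) plated at 500 cells/well, dosed in dose-response, incubated 72 h at 37 degree C. CellTiter-Glo luminescence read; KB-8-5-11 also tested with tariquidar.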
# [20] = system: Zika virus NS2B-NS3 protease (linked construct); assay: 384 well plate NINDS Rhodamine confirmatory qHTS for Zika virus inhibitors (AID 1347164); conditions: rhodamine-110 peptide substrate fluorescence; series mostly up to 100 µM; further: nearly all actives have a fitted effect of over 65% in size; further: potency means the concentration at half of the fitted maximal effect;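 on activity change, negative = inhibition: top concentration of the series differs between compounds; plate controls were no-inhibitor control for no effect and no-enzyme control for full effect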
# In short: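 Cleavage of Ac-LKRR-Rhodamine 110 (10 microM final) by linked protease (final 5, 30 or 60 nM) was followed as fluorescence at 485/538 nm after 25 min, room temperature, dark. Compounds preincubated ~15 min.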
# Tags describe the fitted curve by direction and shape.
# Sequence of UniProt Q03181 (Q03181 whole entry, looked up): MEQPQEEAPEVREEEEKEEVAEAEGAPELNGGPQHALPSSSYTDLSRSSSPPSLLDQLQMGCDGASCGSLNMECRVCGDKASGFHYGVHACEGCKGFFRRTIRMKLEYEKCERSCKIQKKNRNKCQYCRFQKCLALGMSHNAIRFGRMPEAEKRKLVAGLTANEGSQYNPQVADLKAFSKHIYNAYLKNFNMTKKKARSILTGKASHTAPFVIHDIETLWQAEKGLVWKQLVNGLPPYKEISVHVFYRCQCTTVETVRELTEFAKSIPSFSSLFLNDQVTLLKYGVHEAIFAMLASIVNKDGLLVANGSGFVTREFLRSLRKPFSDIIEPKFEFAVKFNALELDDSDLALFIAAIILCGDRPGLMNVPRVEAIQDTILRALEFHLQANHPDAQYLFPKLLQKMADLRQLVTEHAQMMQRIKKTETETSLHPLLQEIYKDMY
# Sequence of UniProt C7C422 (C7C422 whole entry, looked up): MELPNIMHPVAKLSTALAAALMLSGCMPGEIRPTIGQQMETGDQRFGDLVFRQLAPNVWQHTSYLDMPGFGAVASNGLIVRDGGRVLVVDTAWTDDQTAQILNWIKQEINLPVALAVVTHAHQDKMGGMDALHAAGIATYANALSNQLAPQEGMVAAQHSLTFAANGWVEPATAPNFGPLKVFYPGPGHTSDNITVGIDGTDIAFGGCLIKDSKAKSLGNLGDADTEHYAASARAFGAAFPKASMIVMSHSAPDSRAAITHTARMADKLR
compound,measurement,setting,value
COc1c(C)c2c(c(O)c1C/C=C(\C)CC/C=C(\C)CCC(=O)O)C(=O)OC2,outcome,[1],inactive
CCOC(=O)c1c(N)sc2c1CCN(Cc1ccccc1)C2,"ratio activity, negative = inhibition",[2],inconclusive: -14%
Cc1ccc(CN2CCNCC2)cc1NC(=O)CNc1ccc(F)c(F)c1,Potency,[3],inactive
same,Potency,[4],"inconclusive: 18.7 µM [cytotoxic, partial curve, poor fit]"
CC(C)N1[N]C(=C2C=c3cc(O)ccc3=N2)c2c(N)ncnc21,Potency,[5],active: 0.059 µM
CC(=O)O[C@]1(C(C)=O)CC[C@H]2[C@@H]3C=C(Cl)C4=CC(=O)CC[C@]4(C)[C@H]3CC[C@@]21C,Potency,[6],"inconclusive: 11.2 µM [inhibitor, single point]"
same,Potency,[7],"inconclusive: 10 µM [inhibitor, single point]"
CN1C[C@H](C(=O)N[C@]2(C)O[C@@]3(O)[C@@H]4CCCN4C(=O)[C@H](Cc4ccccc4)N3C2=O)C[C@@H]2c3cccc4[nH]cc(c34)C[C@H]21,Potency,[8],"inconclusive: 6.57 µM [cytotoxic, partial curve, poor fit]"
same,Potency,[9],inactive
same,Potency,[10],inactive
COc1cc(C[C@@H](CO)[C@H](CO)Cc2ccc(O)c(OC)c2)ccc1O,Potency,[11],"inconclusive: 3.29 µM [cytotoxic, full curve, poor fit]"
Nc1ncnc2c1ncn2[C@@H]1O[C@H](CO)[C@@H](O)[C@H]1O,Potency,[12],inactive
CC(C)(Oc1ccc(CCNC(=O)c2ccc(Cl)cc2)cc1)C(=O)O,"activity change, negative = inhibition",[13],inconclusive: 28.7%
same,activation,[14],inconclusive: 9.61%
same,Potency,[15],"inconclusive: 15.8 µM [inhibitor, partial curve, poor fit]"
O=C1c2c(O)cccc2Cc2cccc(O)c21,"activity change, negative = cytotoxicity",[16],inconclusive: 39.3%
same,Potency,[14],inactive
same,Potency,[17],inactive
CC[C@]1(O)CC2CN(CCc3c([nH]c4ccccc34)[C@@](C(=O)OC)(c3cc4c(cc3OC)N(C)[C@H]3[C@@](O)(C(=O)OC)[C@H](OC(C)=O)[C@]5(CC)C=CCN6CC[C@]43[C@@H]65)C2)C1 (stereo partly drawn),Potency,[15],"inconclusive: 2 µM [inhibitor, partial curve]"
same,Potency,[12],inactive
O=C(Oc1cccc2cccnc12)c1ccccc1,Potency,[11],"inconclusive: 26.1 µM [cytotoxic, single point]"
same,Potency,[8],"inconclusive: 18.5 µM [cytotoxic, partial curve]"
CCOC(=O)N1CCC(Nc2ccc(Cl)cc2N)CC1,Potency,[10],"inconclusive: 1.12 µM [inhibitor, full curve, poor fit]"
same,Potency,[18],"inconclusive: 10 µM [inhibitor, full curve]"
Cc1onc(-c2ccccc2)c1C(=O)Cl,Potency,[18],inactive
O=C(O)Cc1cccc2ccccc12,Potency,[13],inactive
CC(C)C1NC(=O)C2CCCN2C1=O (stereo not drawn),Potency,[19],inactive
O=C(Oc1ccccc1)c1ccccc1O,"activity change, negative = cytotoxicity",[16],inconclusive: -31.9%
CCOc1ccc(-c2ccc(Cn3c(CC(C)(C)C(=O)O)c(SC(C)(C)C)c4cc(OCc5ccc(C)cn5)ccc43)cc2)cn1,Potency,[20],inactive
O=C(O)CN1C(=O)c2cccc3cccc(c23)C1=O,Potency,[9],active: 20.8 µM
same,Potency,[17],inactive
CC1(C)CC2=C3C=CC4C5(C)CCC(O)C(C)(C)C5CCC4(C)C3(C)CCC2(C)C(O)C1 (stereo not drawn),Potency,[20],"inconclusive: 3.16 µM [inhibitor, full curve, poor fit]"
c1ccc(Nc2nc3c(s2)CCCc2[nH]ncc2-3)nc1,Potency,[19],inactive

# Source: PubChem BioAssay (NCATS)
